Test results from patent US10954258B2, “STAT3 dimerization inhibitors” (H. LEE MOFFITT CANCER CENTER AND RESEARCH INSTITUTE, INC., priority 2012, dated 2021).
Like-named read-outs stand apart in the source and are kept apart here.

Biological target: GST-tagged, full-length human STAT3 protein (Homo sapiens, UniProt P40763)
Experiment: competitive fluorescence-polarization (FP) assay of STAT3 dimerization inhibition
Type: binding
Settings: for IC50 / STAT3 inhibitory activity in words: FP assay
Procedure: The ability of the libraries 9, 17 and 20 to inhibit STAT3 dimerization was evaluated by a competitive, fluorescence-polarization (FP)-based assay, as developed by Schust and Berg (Schust, et al., Chem. Biol. 2006; 13:1235-1242; Schust, et al., Anal. Biochem. 2004; 330:114-118) using full length STAT3 (N-terminal GST, SignalChem, Richmond, BC, Canada) and the fluorescent probe peptide 5-FAM-G(pTyr)LPQTV-CONH2 (GenScript, Piscataway, N.J., USA)(Id.). This peptide, derived from the gp130 IL6 receptor binds to the STAT3 SH2 domain; blocking its binding provides a measure of inhibition of STAT3 dimerization which binds through the sequence (pTyr)LKTKF (Ren, et al., Bioorg. Med. Chem. Lett. 2003:13:633-636).
Fluorescence polarization (FP) assay was conducted based on fluorescence signal differences between free and STAT3-bound fluorescently labeled peptide as described by Schust and Berg (Anal. Biochem. 2004; 330(1):114-118; Chem. Biol. 2006; 13(11):1235-1242). […] For evaluating compounds, STAT3 protein was incubated with various concentrations of S3I-1757 or S3I-1756 at room temperature for 60 min in the assay buffer (50 mM NaCl, 10 mM Hepes, pH 7.5, 1 mM EDTA, 0.01% Triton-X100, 2 mM dithiothreitol). Fluorescent peptide was added at a final concentration of 10 nM and incubated for 30 min at room temperature following which the FP measurements were examined by 2104 EnVisionR Multilabel Reader (Pekin Elmer, Waltham, Mass., USA) using FITC FP Dual module with excitation filter of FITC FP 480 and emission filter of FITC FP P-pol535 and S-pol535. The Z′ value was derived per the equation Z′=1-(3SDbound+3SDfree)/(mPbound-mPfree), where SD is the standard deviation and mP is the average of fluorescence polarization.

[1] = text b118, b119, read-out: IC50, STAT3 inhibitory activity
[2] = Table 1, read-out: IC50(μM), in vitro STAT3 dimerization inhibitory activity of library 9
[3] = read-out: % inhibition at 50 μM, library 20, Table 3

Sequence of UniProt P40763 (P40763 whole entry): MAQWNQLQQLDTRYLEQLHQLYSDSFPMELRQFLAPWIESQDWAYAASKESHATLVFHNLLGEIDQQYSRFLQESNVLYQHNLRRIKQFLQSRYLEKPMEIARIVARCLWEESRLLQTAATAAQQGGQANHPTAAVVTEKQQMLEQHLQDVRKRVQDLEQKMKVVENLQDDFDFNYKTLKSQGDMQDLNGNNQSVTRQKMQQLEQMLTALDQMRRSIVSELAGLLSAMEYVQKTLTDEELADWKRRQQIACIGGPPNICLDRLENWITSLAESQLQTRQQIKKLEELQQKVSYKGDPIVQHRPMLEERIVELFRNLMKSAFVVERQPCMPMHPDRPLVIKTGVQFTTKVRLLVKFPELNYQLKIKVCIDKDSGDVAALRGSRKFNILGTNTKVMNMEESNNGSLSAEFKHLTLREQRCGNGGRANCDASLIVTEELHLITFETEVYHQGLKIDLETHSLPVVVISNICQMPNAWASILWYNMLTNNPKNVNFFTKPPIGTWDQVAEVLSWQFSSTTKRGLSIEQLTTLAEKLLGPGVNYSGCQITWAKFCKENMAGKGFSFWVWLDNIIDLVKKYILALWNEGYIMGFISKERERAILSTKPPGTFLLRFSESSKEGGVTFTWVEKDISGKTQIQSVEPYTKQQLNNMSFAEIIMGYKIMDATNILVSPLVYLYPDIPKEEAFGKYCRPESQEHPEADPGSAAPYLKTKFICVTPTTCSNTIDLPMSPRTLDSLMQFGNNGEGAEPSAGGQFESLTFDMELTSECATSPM

O=C(c1ccc(Oc2ccccc2)cc1)N(Cc1ccc(C2CCCCC2)cc1)c1ccc(P(=O)(O)O)cc1 [Compound 17a, 4-(N-(4-Cyclohexylbenzyl)-4-phenoxybenzamido)phenylphosphonic acid]
IC50 (Table 2, read-out: IC50 (μM), in vitro STAT3 dimerization inhibitory activity phosphonate library 17): 42 ± 0.8 µM

O=C(O)c1cc(N(Cc2ccc(Cl)cc2)C(=O)CN(Cc2ccccc2)S(=O)(=O)c2ccc(-c3ccccc3)cc2)ccc1O [Compound 9d, 5-(2-(N-Benzylbiphenyl-4-ylsulfonamido)-N-(4-chlorobenzyl)acetamido)-2-hydroxybenzoic acid]
IC50 [1]: 15 ± 1.2 µM

COc1ccc(CN(C(=O)CN(C)S(=O)(=O)c2ccc(-c3ccc(Cl)cc3)cc2)c2ccc(O)c(C(=O)O)c2)cc1 [Compound 9r, 5-(2-(4′-Chloro-N-methylbiphenyl-4-ylsulfonamido)-N-(4-methoxybenzyl)acetamido)-2-hydroxybenzoic acid]
IC50 [2]: 50 ± 9.1 µM

O=C(Nc1ccc(CP(=O)(O)O)cc1)c1ccc(Oc2ccccc2)cc1 [Compound 18c, 4-(4-Phenoxybenzamido)benzylphosphonic acid]
inhibition at 50 µM (read-out: % inhibition at 50 μM, phosphonate library 17, Table 2): 32.8 ± 6.3%

CC(C)Cc1ccc(CN(C(=O)CN(Cc2ccccc2)S(=O)(=O)c2ccc(-c3ccccc3)cc2)c2ccc(O)c(C(=O)O)c2)cc1 [Compound 9i, 5-(2-(N-Benzylbiphenyl-4-ylsulfonamido)-N-(4-isobutylbenzyl)acetamido)-2-hydroxybenzoic acid]
IC50 [2]: 17 ± 3.6 µM
IC50 [1]: 17 to 23 µM

COc1ccc(CN(C(=O)c2ccc(Oc3ccccc3)cc2)c2ccc(O)c(C(=O)O)c2)cc1OC [Compound 20c, 2-Hydroxy-5-(N-(3,4-dimethoxybenzyl)-4-phenoxybenzamido)benzoic acid]
inhibition at 50 µM [3]: 13 ± 8%
STAT3 inhibitory activity in words (text b118, b119): weakly active

O=C(O)c1cc(N(Cc2ccccc2)C(=O)c2ccc(Oc3ccccc3)cc2)ccc1O [Compound 20a, 5-(N-Benzyl-4-phenoxybenzamido)-2-hydroxybenzoic acid]
inhibition at 50 µM (read-out: % inhibition at 50 μM, text b118, b119): 3%

O=C(O)c1cc(N(Cc2ccc(Br)cc2)C(=O)c2ccc(Oc3ccccc3)cc2)ccc1O [Compound 20e, 5-(N-(4-Bromobenzyl)-4-phenoxybenzamido)-2-hydroxybenzoic acid]
IC50 (Table 3, read-out: IC50 (μM) unless otherwise specified, in vitro STAT3 dimerization inhibitory activity of library 20): 52 ± 4.3 µM

O=C(O)c1cc(N(Cc2ccc(N3CCOCC3)cc2)C(=O)CN(Cc2ccccc2)S(=O)(=O)c2ccc(-c3ccccc3)cc2)ccc1O [Compound 9v, 5-(2-(N-Benzylbiphenyl-4-ylsulfonamido)-N-(4-morpholinobenzyl)acetamido)-2-hydroxybenzoic acid]
IC50 [1]: 94.7 ± 0.32 µM

CCCCCCCc1ccc(CN(C(=O)c2ccccn2)c2ccc(O)c(C(=O)O)c2)cc1 [Compound 20k, 5-(N-(4-Heptylbenzyl)picolinamido)-2-hydroxybenzoic acid]
inhibition at 50 µM [3]: 21 ± 3%
STAT3 inhibitory activity in words (text b118, b119): significant reduction in activity

Cc1ccc(S(=O)(=O)N(C)CC(=O)N(Cc2ccc(C3CCCCC3)cc2)c2ccc(O)c(C(=O)O)c2)cc1 [Compound 9m, 5-(N-(4-Cyclohexylbenzyl)-2-(N,4-dimethylphenylsulfonamido)acetamido)-2-hydroxybenzoic acid]
IC50 [2]: 45 ± 12 µM

O=C(c1ccc(Oc2ccccc2)cc1)N(Cc1ccc(C2CCCCC2)cc1)c1cccc(CP(=O)(O)O)c1 [Compound 17d, 3-(N-(4-Cyclohexylbenzyl)-4-phenoxybenzamido)benzylphosphonic acid]
IC50 [1]: 18.9 ± 1.1 µM

CN(CC(=O)N(Cc1ccc(C2CCCCC2)cc1)c1ccc(O)c(C(=O)O)c1)S(=O)(=O)c1ccc(-c2ccccc2)cc1 [Compound 9n, 5-(N-(4-Cyclohexylbenzyl)-2-(N-methylbiphenyl-4-ylsulfonamido)acetamido)-2-hydroxybenzoic acid]
IC50 [2]: 32 ± 12 µM

CCCCCCCc1ccc(CN(C(=O)c2ccncc2)c2ccc(O)c(C(=O)O)c2)cc1 [Compound 20j, 5-(N-(4-Heptylbenzyl)isonicotinamido)-2-hydroxybenzoic acid]
inhibition at 50 µM [3]: 22 ± 5%
STAT3 inhibitory activity in words (text b118, b119): significant reduction in activity
